{"source": "patent US20220204567A1", "about": "(published 2022)", "target": "wild type HA ectodomain of H3 A/Indiana/11/2011 with C-terminal Foldon trimerization domain", "experiment": "ELISA", "data": [{"binder": "multidomain antibody MD3606 (Fc fusion) EVQLVESGGGLVQPGGSLRLSCAVSISIFDIYAMDWYRQAPGKQRDLVATSFRDGSTNYADSVKGRFTISRDNAKNTLYLQMNSLKPEDTAVYLCHVSLYRDPLGVAGGMGVYWGKGALVTVSSGGGGSGGGGSEVQLVESGGGLVQAGGSLKLSCAASGRTYAMGWFRQAPGKEREFVAHINALGTRTYYSDSVKGRFTISRDNAKNTEYLEMNNLKPEDTAVYYCTAQGQWRAAPVAVAAEYEFWGQGTQVTVSSGGGGSGGGGSEVQLVESGGGLVQPGGSLRLSCAATGFTLENKAIGWFRQTPGSEREGVLCISKSGSWTYYTDSMRGRFTISRDNAENTVYLQMDSLKPEDTAVYYCATTTAGGGLCWDGTTFSRLASSWGQGTQVTVSSGGGGSGGGGSEVQLVESGGGLVQPGGSLKLSCAASGFTFSTSWMYWLRQAPGKGLEWVSVINTDGGTYYADSVKDRFTISRDNAKDTLYLQMSSLKSEDTAVYYCAKDWGGPEPTRGQGTQVTVSS[human IgG1 Fc left out]", "values": [{"measurement": "EC50", "value": 0.8, "unit": "nM"}]}]}
